Results as given in PubChem BioAssay AID1645882 (National Center for Advancing Translational Sciences (NCATS), 2021).
Hit rate of the full screen: of about 16,000 compounds, about 120 (0.75%) were called active. Roughly 4% stayed inconclusive and do not appear here. Calls come from the whole dose curve; as a rule, active = well fitted inhibition curve with a large enough effect; inconclusive = small, poorly fitted or top-dose-only effect; inactive = no such curve, though single readings can be large or run the other way. The list shows a part of the results.

Each compound was assayed against Rap guanine nucleotide exchange factor 3 (Homo sapiens) (UniProt O95398) (assay: Validation qHTS for antagonist of cAMP-regulated guanine nucleotide exchange factor 3 (EPAC1)). Details: EPAC1 Rap1B-BODIPY-GDP exchange, fluorescence; series mostly up to 150 µM; activity change, negative = inhibition: at the top concentration.
In short: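 Nucleotide exchange followed as fluorescence loss when BODIPY-GDP leaves Rap1B (480 nm excitation, 540 nm emission), read at 5 min intervals over 30 min. Reaction: 100 nM EPAC1, 250 nM RAP1B-BODIPY-GDP, 50 uM GDP; ATA and DMSO define normalization.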
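Note: plate controls were DMSO for no effect and ATA control for full effect; nearly all actives have a fitted effect of over 75% in size.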

Sequence of UniProt O95398 (O95398 whole entry, looked up): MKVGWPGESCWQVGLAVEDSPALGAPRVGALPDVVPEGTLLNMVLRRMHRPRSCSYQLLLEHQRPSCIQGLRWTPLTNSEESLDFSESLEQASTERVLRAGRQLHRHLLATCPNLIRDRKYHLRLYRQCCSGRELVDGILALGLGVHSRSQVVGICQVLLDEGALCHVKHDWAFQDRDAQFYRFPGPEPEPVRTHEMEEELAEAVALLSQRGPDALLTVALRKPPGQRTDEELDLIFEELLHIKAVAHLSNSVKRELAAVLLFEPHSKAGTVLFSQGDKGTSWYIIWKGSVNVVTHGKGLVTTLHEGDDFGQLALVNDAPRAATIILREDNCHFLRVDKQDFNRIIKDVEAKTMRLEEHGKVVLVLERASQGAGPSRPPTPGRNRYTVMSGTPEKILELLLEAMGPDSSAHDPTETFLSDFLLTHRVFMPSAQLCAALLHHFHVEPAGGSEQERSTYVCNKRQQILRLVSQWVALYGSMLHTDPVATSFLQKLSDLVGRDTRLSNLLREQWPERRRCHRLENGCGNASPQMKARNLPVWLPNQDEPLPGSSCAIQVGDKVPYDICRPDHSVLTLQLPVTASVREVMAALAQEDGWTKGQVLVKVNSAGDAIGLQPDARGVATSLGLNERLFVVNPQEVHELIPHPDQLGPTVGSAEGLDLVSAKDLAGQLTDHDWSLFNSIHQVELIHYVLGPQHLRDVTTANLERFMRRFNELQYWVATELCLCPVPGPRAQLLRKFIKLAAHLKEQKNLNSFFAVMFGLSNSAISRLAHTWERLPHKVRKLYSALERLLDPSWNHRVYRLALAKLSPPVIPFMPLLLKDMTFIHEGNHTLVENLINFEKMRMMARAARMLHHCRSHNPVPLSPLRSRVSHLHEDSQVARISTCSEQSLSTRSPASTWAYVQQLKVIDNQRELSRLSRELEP

Activity change, negative = inhibition, inactive:
CCCCN1C[C@H](C)[C@@H](CC(=O)NCc2ccccc2)C1=O -4.59%
Cc1ccccc1-c1ccc2ncnc(N3CCN(C)CC3)c2c1 7.14%
COC(=O)c1c(OCc2ccccc2)cc(=O)n2c1CCN(Cc1cccc(C)n1)CC2 4.19%
NCCNC(=O)c1ccc(Cl)cc1 1.72%
CC1=C(C2=C(C)C(C(C)C)C3=C(C(=O)C(O)C3O)C2O)C(O)C2=C(C(O)C(O)C2=O)C1C(C)C (stereo not drawn) 20.4%
Cc1c(C(=O)N2CCCCC2)sc2ncnc(NCCN(C)C)c12 7.14%
CS(=O)(=O)N1CCC2(CCN(C(c3ccccc3)c3ccccc3)CC2)CC1 -3.35%
CCCSc1ccc2nc(NC(=O)OC)[nH]c2c1
Clc1cccc2c1CN(C1=NCCN1)C2 6.33%
COc1ccc(CCC(=O)O)cc1 10.7%
COc1ccc(/C=C/C(=O)c2ccc(O)cc2O)cc1OC -2.86%
CCN(CC)CCCCCCCCOC(=O)c1cc(OC)c(OC)c(OC)c1
Cc1ccc(-c2ccc(C(=O)N3CCc4nnc(CNC(=O)c5ccccc5)n4CC3)cc2)cc1 3.25%
O=C(Nc1nccs1)[C@@H]1CC=C[C@@H]2CCN(C3CCCCC3)C(=O)[C@@H]21 10.7%
COCc1c(C(=O)NC2CCCCC2)cnn1-c1nccc(-c2cc(C)sc2C)n1 -11.3%
FC(F)OC(Cl)C(F)(F)F (stereo not drawn) 460%
COCC(=O)N1CCC2(CC1)CCN(C(=O)NC(C)C)CC2 -2.25%
Cc1ncc2c(c1CNC(=O)c1cncs1)CCN(C(=O)c1ccc(C(F)(F)F)cc1)C2 5.03%
CC(C)CN1CC[C@@]2(CCCN(S(=O)(=O)c3ccccc3)C2)C1 15.9%
Cn1cccc1C(=O)N1CCC2(CCN(Cc3ccccc3)CC2)CC1 24.4%
c1ccc(Cc2nnc3n2CCN(Cc2cnc(-c4ccccc4)s2)CC3)cc1 20.3%
CCCCCCCCCCCCC/C=C/[C@@H](O)[C@@H](N)CO
COc1ccccc1OCC(O)COC(N)=O (stereo not drawn)
COCC(=O)N1CCC2(CC1)CCN(C(=O)Nc1ccc(OC)cc1)CC2 12.8%
O=S(=O)(NCc1ccc(F)cc1)c1ccc(Br)cc1Br -20.5%
Nc1ccn([C@@H]2CS[C@H](CO)O2)c(=O)n1 19.9%
COc1ccc(C2Sc3ccccc3N(CCN(C)C)C(=O)[C@@H]2OC(C)=O)cc1 (stereo partly drawn)
CN(C)C(=O)Oc1ccc[n+](C)c1
Nc1c2c(nc3ccccc13)CCCC2O (stereo not drawn)
COc1ccc(Oc2ncc3nc(-c4cccc(C#N)c4)c(=O)n(Cc4cccc(OC)c4)c3n2)cc1 3.4%
O=C(Cc1ccc2c(c1)OCO2)N1CCOc2ccc(CN3CCOCC3)cc2C1 10.7%
Cc1cc(N)c2ccccc2[n+]1CCCCCCCCCC[n+]1c(C)cc(N)c2ccccc21
CC(=O)OCC1OC(Oc2cc(OC(C)=O)c3c(=O)cc(-c4ccc(OC(C)=O)cc4)oc3c2)[C@@H](OC(C)=O)C(OC(C)=O)C1OC(C)=O (stereo partly drawn) 3.75%
CNc1ccccc1C(=O)N1CCc2c([nH]c3ccccc23)C1=O 17.4%
CC1=C(C(=O)O)N2C(=O)[C@@H](NC(=O)C(N)c3ccccc3)[C@H]2SC1 (stereo partly drawn) 1.61% [at 75.8 µM]
N#CCCn1c(=O)c(-c2ccc(F)cc2)nc2cnc(Oc3ccccc3)nc21 20.1%
COc1ccc2c(=O)c(CC(=O)O)coc2c1 -8.1%
CN1CCN(c2ncc3nc(CCc4ccccc4)c(=O)n(C4CC4)c3n2)CC1 -2%
COc1ccc2c(=O)c3ccccc3oc2c1 0.074%
C[C@@H]1OC(OC2CC[C@@]3(C)C(CC[C@@]4(C)C3CC=C3C5CC(C)(C)CC[C@]5(C(=O)OC5OCC(O)[C@@H](O)[C@@H]5OC5O[C@@H](C)[C@H](O[C@H]6OC(CO)C(O)C(O)C6O)C(O)C5O)C(O)C[C@@]34C)C2(C)C)C(O)C(O)[C@H]1OC1OCC(O)C(O)[C@H]1O (stereo partly drawn) 41.5%
CN1CCN(c2ncc3nc(-c4ccc(F)cc4)c(=O)n(C4CC4)c3n2)CC1 29.3%
Nc1nc2ncc(CNc3ccc(C(=O)NC(CCC(=O)O)C(=O)O)cc3)nc2c(=O)[nH]1 (stereo not drawn) 8.96%
O=C(NCC1CCC2(CCN(Cc3cccc(-c4ccco4)c3)CC2)O1)c1ccccc1 (stereo not drawn) 7.19%
CC(C)=CCc1c(O)cc(O)c2c1O[C@H](c1ccccc1)CC2=O -10.6%
COCCN(C)C(=O)c1cnn(-c2ncc3c(n2)-c2ccccc2CCC3)c1C1CC1 18.1%
O=c1cc(-c2ccccc2)oc2cccc(O)c12
O=C(NC1CCN(CCc2c[nH]c3ccccc23)CC1)c1ccccc1 17.9%
C=C[C@H](CC(C)C)N(Cc1ccccc1)S(=O)(=O)N(Cc1ccccc1)[C@H](C=C)CC(C)C -1.4%
COc1cccc(Cn2c(=O)c(-c3cn(C)c4ccccc34)nc3cnc(N4CCOCC4)nc32)c1 9.74%
C[C@@H]1C(=O)NC2=Nc3cccc(Cl)c3CN21
Cc1ccc2cccc(O)c2n1 11.2%
O=c1c(CCc2ccccc2)nc2cnc(N3CCNCC3)nc2n1C1CC1 5.92%
N#Cc1cccc(CN2CCC(=O)N([C@H](CO)Cc3ccccc3)CC2)c1 7.48%
COc1ccc(CNc2ncncc2-c2ccccc2OC)c(OC)c1 7.6%
COc1ccc2c(c1)OC(C)CN(CCC(=O)NCC1OCCc3ccccc31)C2 (stereo not drawn) -1.63%
CCNC(=O)/C=C/c1cccc(Br)c1 5.69%
NC1CCN(c2nc3c(cc2F)c(=O)c(C(=O)O)cn3-c2ccc(F)cc2F)C1 (stereo not drawn) 15.8%
NCCO/C=C/[C@H](N)C(=O)O 6.71%
C=Cc1ccc(C(=O)N2CCc3c(cnc(C)c3CNC(=O)c3ccc4c(c3)OCO4)C2)cc1 -1.77%
N#CCCn1c(=O)c(-c2ccc(Cl)cc2)nc2cnc(Oc3ccccc3)nc21 10.8%
CCCCC(C=O)NC(=O)C(CC(C)C)NC(=O)OCc1ccccc1 (stereo not drawn) -9.71%
O=C(c1cnn(-c2nccc(-c3ccco3)n2)c1C1CC1)N1CCCCC1c1cccnc1 (stereo not drawn) 10.8%
CC(=O)Oc1cccc(C)c1 4.06%
COc1ccc(Cl)cc1-c1cc2c(c(OC)c1)OCCN(Cc1cccn1-c1nccs1)C2 22%
c1cncc(-c2ccc3ncnc(N4CCNCC4)c3c2)c1 10.3%
CCCOc1ccccc1-c1nc2n[nH]nc2c(=O)[nH]1
CN(C)c1ccc(-c2cncnc2NCCN2CCOCC2)cc1 -2.77%
COc1ccccc1N1CCN(C[C@@H]2CN3C(=O)N(C)c4ccccc4C3=N2)CC1 11.4%
Cc1cc2c(cc1C)N[C@]1(C[C@H]3CCCC(=O)N4CC[C@@H](C1)[C@@H]34)C(=NC1CCCCC1)N2 16.7%
O=Cc1cc2ccccc2cc1O 15.1%
COc1ccc(C2CC(=O)c3c(O)cc(OC4OC(COC5OC(C)C(O)C(O)C5O)C(O)C(O)C4O)cc3O2)cc1O (stereo not drawn) 7.5%
O=C(O)CO.[NH2-].[NH2-].[Pt+2] 8.35%
Cn1cc(-c2nc3cnc(N4CCNCC4)nc3n(CCC#N)c2=O)c2ccccc21 -1.43%
COc1cccc(C(=O)NCCN2CCN(c3ccc(Cl)cc3)CC2)c1 -0.462% [at 75.8 µM]
Cc1cccc(-c2cccc(C(=O)N3CCc4c(cnc(C)c4CNC(=O)c4cncs4)C3)c2)c1 -0.992%
COc1ccc2[nH]cc(CCNc3ncncc3-c3cccnc3)c2c1 -17.2%
N#Cc1ccc(CN2CCC3(CC2)CCN(C(=O)c2csnn2)CC3)cc1 17.1%
COC1=C(OC)C(=O)C(C/C=C(\C)CC/C=C(\C)CC/C=C(\C)CC/C=C(/C)CC/C=C(\C)CC/C=C(\C)CC/C=C(\C)CC/C=C(\C)CC/C=C(\C)CCC=C(C)C)=C(C)C1=O 11.7%
COc1cc(-c2noc(C)c2C#Cc2nccn2C)cc(OC)c1OC 8.12%
CCCCCCCCCCCC(=O)O[C@H](CC(=O)O)C[N+](C)(C)C 9.8%
COc1ccc(-c2cc(C(=O)N3CCc4c(cnc(C)c4CNC(=O)c4ccsc4)C3)[nH]n2)cc1 13.7%
Cc1nc2cc(NC(=O)[C@@H]3C[C@@H](Sc4ccccn4)CN3Cc3ccccc3)ccc2s1 -3.33%
Cc1cccc2c(C(O)c3c[nH]c4c(C)cccc34)c[nH]c12 -21.1%
CCO[C@H]1[C@H](NC(=O)c2cccnc2)c2ccccc2C12CCN(C(=O)c1ccoc1)CC2 10.7%
COc1cc(OC)c2c(c1Cl)OC1(C2=O)C(O)=CC(=O)CC1C (stereo not drawn) 5.57%
O=C1NC(=O)C(c2ccccc2)(c2ccccc2)N1
Cc1nc2cnc(N3CCOCC3)nc2n(C)c1=O 4.28%
COc1ccc(CNc2ncncc2-c2cccc(NS(C)(=O)=O)c2)c(OC)c1 -13.8%
NC(=O)NNc1ccccc1
CN1Cc2c(N)cccc2C(c2ccccc2)C1 (stereo not drawn)
Cc1cc2c(cc1C)N[C@]1(C[C@H]3CCC(=O)N4CC[C@@H](C1)[C@@H]34)C(=Nc1ccccc1C)N2 -1.23%
COc1ccc(C2(C(=O)NCC3Cc4cccc(-c5cccnc5)c4O3)CCCC2)cc1 (stereo not drawn) -12.9%
FC(F)(F)COCC(F)(F)F -0.876%
COc1cccc2c1C(=O)CC(c1ccccc1)O2 (stereo not drawn) -14.2%
O=C(CN1Cc2ccccc2OC(c2ccsc2)C1)N1CCN(Cc2ccc3c(c2)OCO3)CC1 (stereo not drawn) -29.7%
COc1ncc2nc(C)c(=O)n(CCc3ccccc3)c2n1 6.32%
CSc1ccc2c(c1)[C@H](N1CCN(C)CC1)Cc1ccccc1S2 -16%
CCC1CN(CCNC(=O)c2ccc(C#CC(C)(C)O)cc2)Cc2cc(OC)ccc2O1 (stereo not drawn) -3.4%
O=S1(=O)CCOC[C@H](CC2CCCCC2)N1Cc1cccc(Cl)c1 -27.4%
Cc1ccccc1-c1ccc2ncnc(NCCN3CCOCC3)c2c1 4.83%
O=C(c1ccccc1)c1ccc2n1CCC2C(=O)O (stereo not drawn)
CCOC(=O)[C@@](C)(N)Cc1ccc(O)c(O)c1 23.6% [at 75.8 µM]
CC(=O)C[C@H]1c2cc(C(F)(F)F)ccc2S(=O)(=O)N1C1CCCCC1 -7.97%
